The whole screen tested about 310,000 compounds, of which about 14,000 (4.5%) showed an effect of 50% or more. The effect is printed as a negative number. Some of the results follow.
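Note: peak tail current of the secondary pulse compared with the same well before compound.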

Sequence of human ether-à-go-go-related gene (hERG) potassium channel (Q12809 whole entry, looked up): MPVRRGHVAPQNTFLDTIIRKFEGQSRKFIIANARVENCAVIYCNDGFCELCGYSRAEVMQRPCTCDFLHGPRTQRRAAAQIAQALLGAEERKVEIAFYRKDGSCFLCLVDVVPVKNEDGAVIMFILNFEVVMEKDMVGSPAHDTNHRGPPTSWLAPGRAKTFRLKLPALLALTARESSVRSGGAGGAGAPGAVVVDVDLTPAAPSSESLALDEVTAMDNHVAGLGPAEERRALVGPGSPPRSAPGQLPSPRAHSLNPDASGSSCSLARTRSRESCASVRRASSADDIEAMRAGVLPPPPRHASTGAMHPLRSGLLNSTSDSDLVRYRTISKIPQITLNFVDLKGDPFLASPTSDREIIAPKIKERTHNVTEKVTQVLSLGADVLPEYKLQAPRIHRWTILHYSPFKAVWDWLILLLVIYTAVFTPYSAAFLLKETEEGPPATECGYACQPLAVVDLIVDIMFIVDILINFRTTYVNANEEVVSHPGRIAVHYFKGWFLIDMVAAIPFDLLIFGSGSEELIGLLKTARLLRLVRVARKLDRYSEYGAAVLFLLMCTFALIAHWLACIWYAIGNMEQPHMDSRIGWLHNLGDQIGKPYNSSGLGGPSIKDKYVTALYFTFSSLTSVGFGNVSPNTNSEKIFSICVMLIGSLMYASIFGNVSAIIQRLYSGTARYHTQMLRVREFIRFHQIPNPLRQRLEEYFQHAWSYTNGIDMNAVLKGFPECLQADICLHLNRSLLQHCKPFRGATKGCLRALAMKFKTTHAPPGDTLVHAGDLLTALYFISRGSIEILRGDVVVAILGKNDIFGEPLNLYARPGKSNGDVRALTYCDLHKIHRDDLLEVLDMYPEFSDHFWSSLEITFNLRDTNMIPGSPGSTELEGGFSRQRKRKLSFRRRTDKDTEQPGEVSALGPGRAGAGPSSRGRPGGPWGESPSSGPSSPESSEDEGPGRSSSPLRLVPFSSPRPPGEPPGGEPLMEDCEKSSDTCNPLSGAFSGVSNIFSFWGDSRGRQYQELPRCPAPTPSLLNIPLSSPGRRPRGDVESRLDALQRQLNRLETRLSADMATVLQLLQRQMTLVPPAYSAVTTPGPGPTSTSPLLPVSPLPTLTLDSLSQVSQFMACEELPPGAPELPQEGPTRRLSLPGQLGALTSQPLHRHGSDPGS

The test concerns the target human ether-à-go-go-related gene (hERG) potassium channel (human, UniProt Q12809). Briefly: primary screen, population patch clamp on CHO cells stably expressing hERG.
In the case of `S=c1[nH]nc(-c2ccccc2)n1/N=C/c1cccc(Cl)c1`, the “hERG current change (%, negative = inhibition) at 10uM” value stood at 25.8%. Consider `CCCCOc1nc2c(c(=O)n(C)c(=O)n2C)n1C`, for which the “hERG current change (%, negative = inhibition) at 10uM” value turned out to be 5.4%. The value for `O=C1C2(Cl)C3(Cl)C4(Cl)C(Cl)(Cl)C5(Cl)C3(Cl)C1(Cl)C5(Cl)C24Cl` (stereo not drawn) was 18.4%; that for `Cc1cc(C)c(S(=O)(=O)N2CCCC2CNC(=O)c2ccc3c(c2)OCO3)c(C)c1` (stereo not drawn) was -33.7%; that for `O=C(O)/C=C/C(=O)Nc1cc(F)ccc1F` was 22.1%.

With `O=C(Cc1ccccc1)NCC(=O)OCc1cccc([N+](=O)[O-])c1`, the “hERG current change (%, negative = inhibition) at 10uM” value is given as -6.77%. As for `CC[N+](C)(CC)CCC/C(=N/O)C(O)(c1ccccc1)c1ccccc1.[I-]`, the “hERG current change (%, negative = inhibition) at 10uM” value was 15.5%. Regarding `CSc1ccc(S(=O)(=O)N2CCC(C(=O)NCc3ccco3)CC2)cc1`, the “hERG current change (%, negative = inhibition) at 10uM” value is listed as -34.5%.

Take `O=C(NC(=S)Nc1ccc2[nH]c(=O)[nH]c2c1)c1cc(Br)ccc1Cl`: the “hERG current change (%, negative = inhibition) at 10uM” value came to 23%.

Regarding `O=C(NC1=NCCS1)C1CCCCC1`, the “hERG current change (%, negative = inhibition) at 10uM” value was found to be 24.5%. With `COc1ccc(S(=O)(=O)Nc2cccc(Cl)c2)cc1OC`, the “hERG current change (%, negative = inhibition) at 10uM” value was -2.18%. On to `O=C(NCC1CCCN(C(=O)CN2CCCCC2)C1)c1ccccc1Cl` (stereo not drawn), for which the “hERG current change (%, negative = inhibition) at 10uM” value is on record as 13%.

For `CCc1nn(CC(=O)N2CCN(c3ccc(OC)cc3)CC2)c(=O)c2cc3occc3n12`, the “hERG current change (%, negative = inhibition) at 10uM” value is listed as 3.03%.

Regarding `COc1ccccc1NS(=O)(=O)c1cc(NC(=O)C2CCC2)ccc1N1CCCCC1`, the “hERG current change (%, negative = inhibition) at 10uM” value worked out at 16.6%. For `Cc1cc(NC(=O)Nc2cc(Cl)ccc2C)no1`, the “hERG current change (%, negative = inhibition) at 10uM” value was determined as 7.39%. The value for `O=C(C1=C[C@H](c2ccc(Br)cc2)C[C@H](OCc2ccc(CO)cc2)O1)N1CCN(Cc2ccc3c(c2)OCO3)CC1` was -19.8%; that for `CN(C)CCN(C(=O)c1cccc2ccccc12)c1nc2cc3c(cc2s1)OCO3.Cl` was -22.3%.

For `CC(Oc1ccccc1F)c1nnc(SCC(=O)NCc2ccc3c(c2)OCO3)o1` (stereo not drawn), the “hERG current change (%, negative = inhibition) at 10uM” value is recorded as -32.1%. Consider `COc1ccc(NS(=O)(=O)c2ccc(O)c(NC(=O)c3ccc(S(=O)(=O)N4CCCC4)cc3)c2)cc1`, for which the “hERG current change (%, negative = inhibition) at 10uM” value turned out to be 2.69%. Consider `c1ccc(CSc2snnc2-c2ccccc2)cc1`, for which the “hERG current change (%, negative = inhibition) at 10uM” value is reported as -0.581%. Turning to `COc1ccc(CN2CCN(C(=O)CC(C)C)CC2)cc1Br`, the “hERG current change (%, negative = inhibition) at 10uM” value is recorded as -4.54%. With `Cc1nnc(SCC(=O)NCc2ccc(F)cc2)[nH]c1=O`, the “hERG current change (%, negative = inhibition) at 10uM” value came out at 23%.

Turning to `CC(C)N(C(=O)CSc1nc(COc2ccccc2)nc2ccccc12)C(C)C`, the “hERG current change (%, negative = inhibition) at 10uM” value was -4.66%. To `O=C(Cn1cc(C(=O)c2ccco2)c2ccccc21)Nc1ccccc1` belongs 7.45%. On to `Cc1nnc2ccc(-c3cccc(NS(=O)(=O)c4cc(F)ccc4F)c3)nn12`, for which the “hERG current change (%, negative = inhibition) at 10uM” value is on record as -0.0273%.

For the molecule `CC(C)(C)C(=O)NC(NC(=S)Nc1sc2c(c1C#N)CCCC2)C(Cl)(Cl)Cl` (stereo not drawn), the “hERG current change (%, negative = inhibition) at 10uM” value is reported as 21.9%.

In the case of `N#C/C(=C/c1ccc(Sc2nc3ccccc3[nH]2)o1)c1cccc(Br)c1`, the “hERG current change (%, negative = inhibition) at 10uM” value was 21.3%.

With `O=C(NCc1ccc(F)cc1)N1CCN(C(=O)c2ccccc2)CC1`, the “hERG current change (%, negative = inhibition) at 10uM” value was -13.5%. For `COc1nc(OC)nc(N2CCC(NC(=O)C(Cc3cccc(OC)c3OC)NC(C)=O)CC2)n1` (stereo not drawn), the “hERG current change (%, negative = inhibition) at 10uM” value is -2.3%. As for `CC(OC(=O)C1CC(=O)N(Cc2ccco2)C1)C(=O)Nc1ccc(F)cc1Cl` (stereo not drawn), the “hERG current change (%, negative = inhibition) at 10uM” value was found to be 11.1%. `O=C(NCC1CCCO1)c1ccccc1NS(=O)(=O)c1cccs1` (stereo not drawn): the “hERG current change (%, negative = inhibition) at 10uM” value was -5.56%. For `S=C(NCc1ccc(Cl)cc1)NC12CC3CC(CC(C3)C1)C2`, the “hERG current change (%, negative = inhibition) at 10uM” value came to 11.5%. Take `CC(C)CNC(=S)NNC(=O)c1csc2c1CCC(C)C2` (stereo not drawn): the “hERG current change (%, negative = inhibition) at 10uM” value is -2.19%.

With `O=C(c1cccc(Br)c1)N1CCN(c2cnn(-c3ccccc3)c(=O)c2Cl)CC1`, the “hERG current change (%, negative = inhibition) at 10uM” value was -47.4%. For `Cc1nn(-c2ccccc2)c2nc(Cl)c(C(=O)O)cc12`, the “hERG current change (%, negative = inhibition) at 10uM” value is given as -0.085%. To `C=CCc1cccc([C@@H]2[C@@H](C)CC[C@H]3C(=O)N4[C@@H](c5cc(OC)c(OC)c(OC)c5)c5[nH]c6ccccc6c5C[C@H]4C(=O)N23)c1` belongs 19.9%; to `O=C(O)c1c(Cl)c(Cl)c(Cl)c(Cl)c1C(=O)N1CCCC1`, 7.07%; to `Cc1cc(C)nc(/N=C(/NC(=O)Nc2ccc(Cl)c(Cl)c2)Nc2cccc(Cl)c2)n1`, 6.58%. Turning to `Cc1ccc(-n2c(C)cc(C(=O)COC(=O)c3ccc[nH]c3=O)c2C)cc1`, the “hERG current change (%, negative = inhibition) at 10uM” value is reported as -14.6%.

Turning to `Cc1ccc(NC(=O)CN(C)S(=O)(=O)c2cccc3cccnc23)cc1C`, the “hERG current change (%, negative = inhibition) at 10uM” value is recorded as -1.77%. With `O=C(O)c1ccnc(SCC(=O)c2ccccc2)c1`, the “hERG current change (%, negative = inhibition) at 10uM” value was 13.3%.

Take `CNc1oc(/C=C/c2cccc(OC)c2)nc1C#N`: the “hERG current change (%, negative = inhibition) at 10uM” value was found to be 13.9%.

For the origin of these results see PMC4336329 (PLoS ONE, 2015).
